Results from the supplement of paper PMC8285479.
Counter-ions that a name gives are not always drawn. ± gives the standard deviation of the averaged measurements. The full ranking holds about 1,900 compounds; the median of “normalised cell viability (NPI; 0 = phenylarsine oxide control, 1 = DMSO control)” is about 1, and the lowest 2% start at about 0.039. The list shows a part of the results.

Test system: NCI-H1944
Assay: normalised cell viability (NPI; 0 = phenylarsine oxide control, 1 = DMSO control) (fraction of DMSO control); NCI-H1944 is a non-small cell lung cancer line; higher = more viable cells (less compound toxicity)
Settings: 6 days
[1] = glucocorticoid arm: hydrocortisone 2.75 uM co-treatment, compound 1 µM
[2] = glucocorticoid arm: hydrocortisone 2.75 uM co-treatment, compound 5 µM
[3] = glucocorticoid arm: hydrocortisone 2.75 uM pre-treated 2 days and continued, compound 1 µM
[4] = glucocorticoid arm: hydrocortisone 2.75 uM pre-treated 2 days and continued, compound 5 µM
[5] = glucocorticoid arm: vehicle, compound 1 µM
[6] = glucocorticoid arm: vehicle, compound 5 µM
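Also: CTB read-out in 384-well plates, mean of triplicate wells, normalised per plate against 1 µM phenylarsine oxide and 0.1% DMSO, compounds added 24 h after seeding.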

Row | Structure (SMILES) | normalised cell viability [1] | normalised cell viability [2] | normalised cell viability [3] | normalised cell viability [4] | normalised cell viability [5] | normalised cell viability [6]
1 | O=C(O)CN(CCN(CC(=O)O)CC(=O)O)CCN(CC(=O)O)CC(=O)O [Diethylenetriaminepentaacetic acid] | 1.004 ± 0.01 | 0.994 ± 0.028 | 0.999 ± 0.011 | 0.991 ± 0.027 | 0.9943 ± 0.0031 | 0.995 ± 0.007
2 | C#CCN(C)CCCOc1ccc(Cl)cc1Cl [Clorgyline hydrochloride] | 0.988 ± 0.0056 | 0.987 ± 0.011 | 0.994 ± 0.017 | 1.03 ± 0.06 | 0.9787 ± 0.0011 | 0.9837 ± 0.006
3 | CC(C(=O)Nc1cccc(/N=C/c2c(O)ccc3ccccc23)c1)c1ccccc1 (stereo not given) [Salermide] | 0.999 ± 0.014 | 1.01 ± 0.02 | 0.9942 ± 0.0055 | 1 ± 0.035 | 0.9967 ± 0.0083 | 1.002 ± 0.01
4 | CC(C)NCC(O)c1cc(O)cc(O)c1 (stereo not given) [Metaproterenol hemisulfate] | 1.002 ± 0.0072 | 1.01 ± 0.028 | 1.01 ± 0.019 | 1.04 ± 0.095 | 0.983 ± 0.0046 | 0.989 ± 0.0053
5 | O=[N+]([O-])c1cc2nc(O)c(O)nc2cc1[N+](=O)[O-] | 0.985 ± 0.012 | 0.981 ± 0.013 | 0.99 ± 0.0089 | 0.965 ± 0.014 | 0.9743 ± 0.0064 | 0.971 ± 0.007
6 | CC(=O)/C(C)=N/O [2,3-Butanedione monoxime] | 0.997 ± 0.0052 | 0.98 ± 0.033 | 0.986 ± 0.017 | 0.9965 ± 0.00071 | 0.987 ± 0.0066 | 0.9773 ± 0.0085
7 | COCC(=O)O[C@]1(CCN(C)CCCc2nc3ccccc3[nH]2)CCc2cc(F)ccc2[C@@H]1C(C)C [Mibefradil dihydrochloride] | 0.977 ± 0.011 | 0.0303 ± 0.012 | 1 ± 0.015 | 0.827 ± 0.24 | 0.9887 ± 0.0031 | 0.00844 ± 0.014
8 | O=c1c2ccccc2nc2n1CCc1c-2[nH]c2ccccc12 [Rutaecarpine] | 1.03 ± 0.015 | 1.06 ± 0.02 | 1.04 ± 0.036 | 1.05 ± 0.02 | 1.001 ± 0.0079 | 0.996 ± 0.004
9 | OC[C@H]1O[C@@H](n2cnc3c2N=CNC[C@H]3O)C[C@@H]1O [Pentostatin] | 1.02 ± 0.011 | 1.01 ± 0.022 | 1.03 ± 0.011 | 1.04 ± 0.01 | 1.013 ± 0.0058 | 1.01 ± 0.011
10 | COc1nc(N)nc2c1ncn2[C@@H]1O[C@H](CO)[C@@H](O)[C@@H]1O [Nelarabine] | 1.01 ± 0.015 | 0.785 ± 0.052 | 1.004 ± 0.0098 | 0.885 ± 0.035 | 0.9907 ± 0.0029 | 0.323 ± 0.026
11 | O=C(CCCN1CCC(O)(c2cccc(C(F)(F)F)c2)CC1)c1ccc(F)cc1 [Trifluperidol hydrochloride] | 0.999 ± 0.0095 | 0.962 ± 0.022 | 1.05 ± 0.038 | 1.04 ± 0.02 | 1.023 ± 0.0058 | 1.017 ± 0.0058
12 | CN(C)CCCn1cc(C2=C(c3c[nH]c4ccccc34)C(=O)NC2=O)c2ccccc21 | 0.992 ± 0.017 | 1.06 ± 0.011 | 1.01 ± 0.02 | 1.01 ± 0.059 | 1.03 ± 0.011 | 1.05
13 | O=C(Nc1cccc(Nc2ncc(Br)c(NCCc3cnc[nH]3)n2)c1)N1CCCC1 | 0.955 ± 0.015 | 0.805 ± 0.016 | 0.939 ± 0.0062 | 0.859 ± 0.02 | 0.917 ± 0.0095 | 0.635 ± 0.029
14 | COc1ccccc1N1CCN(CCCNc2cc(=O)n(C)c(=O)n2C)CC1 [Urapidil HCl] | 0.998 ± 0.038 | 1.02 ± 0.01 | 1.02 ± 0.01 | 0.995 ± 0.022 | 1.002 ± 0.0068 | 0.999 ± 0.011
15 | COc1ccccc1N1CCN(CCCNc2cc(=O)n(C)c(=O)n2C)CC1 [Urapidil hydrochloride] | 1.023 ± 0.0058 | 1.01 ± 0.01 | 1.03 ± 0.017 | 1.017 ± 0.0058 | 1.01 ± 0.011 | 1.01 ± 0.01
16 | CN/C(=N\c1ccc(C2=NNC(=O)CC2C)cc1)NC#N (stereo not given) | 0.9943 ± 0.0046 | 0.992 ± 0.018 | 0.875 ± 0.22 | 0.9957 ± 0.0051 | 0.995 ± 0.005 | 0.997 ± 0.0052
17 | CN(C)[C@@H]1C(=O)C(C(N)=O)=C(O)[C@@]2(O)C(=O)C3=C(O)c4c(O)ccc(Cl)c4[C@@H](O)[C@H]3C[C@@H]12 [Demeclocycline hydrochloride] | 0.985 ± 0.015 | 0.882 ± 0.017 | 0.9907 ± 0.0055 | 0.932 ± 0.024 | 0.975 ± 0.0027 | 0.967 ± 0.014
18 | Cn1cnc([N+](=O)[O-])c1Sc1ncnc2[nH]cnc12 [Azathioprine] | 0.963 ± 0.022 | 0.798 ± 0.031 | 0.9717 ± 0.0032 | 0.924 ± 0.023 | 0.972 ± 0.012 | 0.863 ± 0.009
19 | CC(=O)Oc1cc2c(s1)CCN(C(C(=O)C1CC1)c1ccccc1F)C2 (stereo not given) [Prasugrel] | 1.007 ± 0.0058 | 1.05 ± 0.011 | 0.977 ± 0.039 | 1.05 ± 0.015 | 1.007 ± 0.0058 | 0.9987 ± 0.0023
20 | CC(C)C(=O)Nc1ccc([N+](=O)[O-])c(C(F)(F)F)c1 [Flutamide] | 1.01 | 1.01 ± 0.012 | 1.007 ± 0.0058 | 1.01 ± 0.011 | 1.007 ± 0.0058 | 1.02 ± 0.011
21 | S=C(NCc1ccc2c(c1)OCO2)N1CCN(c2ncnc3c2oc2ccccc23)CC1 [Amuvatinib (MP-470)] | 0.982 ± 0.019 | 1.01 ± 0.037 | 0.9972 ± 0.0086 | 1.02 ± 0.018 | 0.975 ± 0.02 | 0.984 ± 0.012
22 | CC(=O)OCC[N+](C)(C)C [Acetylcholine Chloride] | 1.01 ± 0.012 | 1.01 ± 0.025 | 1.02 ± 0.032 | 1 ± 0.014 | 0.996 ± 0.013 | 0.986 ± 0.016
23 | CC1(C)CCC2=C(O1)c1ccccc1C(=O)C2=O [beta-Lapachone] | 1.003 ± 0.0058 | 0.459 ± 0.07 | 0.995 ± 0.013 | 0.986 ± 0.013 | 0.9993 ± 0.0011 | 0.213 ± 0.019
24 | Cn1c(Nc2ccc(C(F)(F)F)cc2)nc2cc(Oc3ccnc(-c4ncc(C(F)(F)F)[nH]4)c3)ccc21 | 0.882 ± 0.017 | 0.889 ± 0.048 | 0.938 ± 0.0027 | 0.945 ± 0.026 | 0.911 ± 0.014 | 0.901 ± 0.045
25 | O=C(O)/C=C/c1cnc[nH]1 [4-Imidazoleacrylic acid] | 0.999 ± 0.0017 | 1.01 ± 0.017 | 1.05 ± 0.074 | 1.013 ± 0.0058 | 1.001 ± 0.0085 | 0.9917 ± 0.0055
